The text below walks through data of PMC12820563, “FoxP3 forms a head-to-head dimer in vivo and stabilizes its multimerization on adjacent microsatellites”.

The other results are listed elsewhere or left out.

For the experiment, the target named is T1, MBP-FoxP1dN (Mus musculus, UniProt P58462 326-579).
T1 sequence: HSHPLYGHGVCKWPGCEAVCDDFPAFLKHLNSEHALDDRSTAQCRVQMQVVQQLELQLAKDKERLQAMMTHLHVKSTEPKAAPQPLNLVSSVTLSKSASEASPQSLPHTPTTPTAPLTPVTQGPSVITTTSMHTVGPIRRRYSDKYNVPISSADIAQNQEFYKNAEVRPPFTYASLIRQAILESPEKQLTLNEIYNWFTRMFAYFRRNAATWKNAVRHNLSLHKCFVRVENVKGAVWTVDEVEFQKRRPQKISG
The experiment can be described thus: PD-seq (MBP pull-down with sequencing); 20 mM Tris-HCl pH 7.5, 100 mM NaCl, 1.5 mM MgCl2, 0.4 uM protein, 0.1 uM dsDNA library, 30 min, room temperature, amylose pull-down; high values mean tight binding. The following applies: protein: recombinant; tags: His6-MBP; chain copies: 2; dsDNA, one strand shown. The method in brief: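 A degenerate double-stranded DNA library, filled in with Klenow, was added at 0.1 µM to 0.4 µM His6-MBP-tagged mouse FoxP3 or FoxP1 fragment lacking the N-terminus, expressed in E. coli. Incubation lasted 30 min at room temperature in Tris pH 7.5 buffer with NaCl and MgCl2, after which complexes were collected on amylose resin, washed three times, digested with proteinase K to free the DNA, barcoded by PCR and sequenced by Illumina. Binding is the pooled-replicate reads-per-million enrichment of pull-down over input.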
Consider “GATGATTGTTCTCCCAGCTGATGAATTTCCGTGCTCGAGTAAACAAATTTTCCTAATCTTTCTGTTCAAGCGCCATCTAC”, for which the binding signal was 0.787 RPM ratio (pull-down/input). Then “GATGATTGTTCTCCCAGCTGATGAATTCACCTTTTCGAGTAAACAAATTTTCCTAATCTTTCTGTTCAAGCGCCATCTAC”, with 0.881 RPM ratio (pull-down/input); and “GATGATTGTTCTCCCAGCTGATGAATTTTAGGGGTCGAGTAAACAAATTTTCCTAATCTTTCTGTTCAAGCGCCATCTAC”, with 0.805 RPM ratio (pull-down/input). As for “GATGATTGTTCTCCCAGCTGATGAATTAGCCTACTCGAGTAAACAAATTTTCCTAATCTTTCTGTTCAAGCGCCATCTAC”, the figure is 0.878 RPM ratio (pull-down/input); as for “GATGATTGTTCTCCCAGCTGATGAATTCGACCGGTCGAGTAAACAAATTTTCCTAATCTTTCTGTTCAAGCGCCATCTAC”, 0.774 RPM ratio (pull-down/input). As for “GATGATTGTTCTCCCAGCTGATGAATTTAGTGGATCGAGTAAACAAATTTTCCTAATCTTTCTGTTCAAGCGCCATCTAC”, the figure is 0.904 RPM ratio (pull-down/input); as for “GATGATTGTTCTCCCAGCTGATGAATTTTAGAATTCGAGTAAACAAATTTTCCTAATCTTTCTGTTCAAGCGCCATCTAC”, 0.918 RPM ratio (pull-down/input). As for “GATGATTGTTCTCCCAGCTGATGAATTCTCACCATCGAGTAAACAAATTTTCCTAATCTTTCTGTTCAAGCGCCATCTAC”, the binding signal is 0.916 RPM ratio (pull-down/input). Then “GATGATTGTTCTCCCAGCTGATGAATTACCTAAATCGAGTAAACAAATTTTCCTAATCTTTCTGTTCAAGCGCCATCTAC”, with 1.15 RPM ratio (pull-down/input); and “GATGATTGTTCTCCCAGCTGATGAATTGGCCCGATCGAGTAAACAAATTTTCCTAATCTTTCTGTTCAAGCGCCATCTAC”, with 0.782 RPM ratio (pull-down/input). As for “GATGATTGTTCTCCCAGCTGATGAATTAGAGATCTCGAGTAAACAAATTTTCCTAATCTTTCTGTTCAAGCGCCATCTAC”, the figure is 0.832 RPM ratio (pull-down/input); as for “GATGATTGTTCTCCCAGCTGATGAATTCACAATTTCGAGTAAACAAATTTTCCTAATCTTTCTGTTCAAGCGCCATCTAC”, 1.08 RPM ratio (pull-down/input); as for “GATGATTGTTCTCCCAGCTGATGAATTAAATTGCTCGAGTAAACAAATTTTCCTAATCTTTCTGTTCAAGCGCCATCTAC”, 1.05 RPM ratio (pull-down/input). Turning to “GATGATTGTTCTCCCAGCTGATGAATTCATAAAGTCGAGTAAACAAATTTTCCTAATCTTTCTGTTCAAGCGCCATCTAC”, the binding signal was 0.905 RPM ratio (pull-down/input). As for “GATGATTGTTCTCCCAGCTGATGAATTCGGTAACTCGAGTAAACAAATTTTCCTAATCTTTCTGTTCAAGCGCCATCTAC”, the figure is 0.833 RPM ratio (pull-down/input); as for “GATGATTGTTCTCCCAGCTGATGAATTTCATTAGTCGAGTAAACAAATTTTCCTAATCTTTCTGTTCAAGCGCCATCTAC”, 0.848 RPM ratio (pull-down/input).

For “GATGATTGTTCTCCCAGCTGATGAATTTACCGTTTCGAGTAAACAAATTTTCCTAATCTTTCTGTTCAAGCGCCATCTAC”, the binding signal is 1.17 RPM ratio (pull-down/input). In the case of “GATGATTGTTCTCCCAGCTGATGAATTGTATGCATCGAGTAAACAAATTTTCCTAATCTTTCTGTTCAAGCGCCATCTAC”, the binding signal is 1.47 RPM ratio (pull-down/input).

Regarding “GATGATTGTTCTCCCAGCTGATGAATTGGATTATTCGAGTAAACAAATTTTCCTAATCTTTCTGTTCAAGCGCCATCTAC”, the binding signal was 0.928 RPM ratio (pull-down/input). Regarding “GATGATTGTTCTCCCAGCTGATGAATTTACATGATCGAGTAAACAAATTTTCCTAATCTTTCTGTTCAAGCGCCATCTAC”, the binding signal was 1.42 RPM ratio (pull-down/input). As for “GATGATTGTTCTCCCAGCTGATGAATTCCTCAGGTCGAGTAAACAAATTTTCCTAATCTTTCTGTTCAAGCGCCATCTAC”, the figure is 0.743 RPM ratio (pull-down/input).

For the sequence “GATGATTGTTCTCCCAGCTGATGAATTCATTTTCTCGAGTAAACAAATTTTCCTAATCTTTCTGTTCAAGCGCCATCTAC”, the binding signal was 0.867 RPM ratio (pull-down/input). As to “GATGATTGTTCTCCCAGCTGATGAATTGAATTACTCGAGTAAACAAATTTTCCTAATCTTTCTGTTCAAGCGCCATCTAC”, the binding signal was 0.826 RPM ratio (pull-down/input). For the sequence “GATGATTGTTCTCCCAGCTGATGAATTTGATGTCTCGAGTAAACAAATTTTCCTAATCTTTCTGTTCAAGCGCCATCTAC”, the binding signal was 1.07 RPM ratio (pull-down/input). With “GATGATTGTTCTCCCAGCTGATGAATTAAGAAGCTCGAGTAAACAAATTTTCCTAATCTTTCTGTTCAAGCGCCATCTAC”, the binding signal was 0.87 RPM ratio (pull-down/input). In the case of “GATGATTGTTCTCCCAGCTGATGAATTGAAAGAGTCGAGTAAACAAATTTTCCTAATCTTTCTGTTCAAGCGCCATCTAC”, the binding signal was 0.824 RPM ratio (pull-down/input). Consider “GATGATTGTTCTCCCAGCTGATGAATTATTAGCTTCGAGTAAACAAATTTTCCTAATCTTTCTGTTCAAGCGCCATCTAC”, for which the binding signal is 1.11 RPM ratio (pull-down/input). Then “GATGATTGTTCTCCCAGCTGATGAATTCAAGCTATCGAGTAAACAAATTTTCCTAATCTTTCTGTTCAAGCGCCATCTAC”, with 0.968 RPM ratio (pull-down/input). Then “GATGATTGTTCTCCCAGCTGATGAATTAGTCGTATCGAGTAAACAAATTTTCCTAATCTTTCTGTTCAAGCGCCATCTAC”, with 1.01 RPM ratio (pull-down/input). Consider “GATGATTGTTCTCCCAGCTGATGAATTCAGACTCTCGAGTAAACAAATTTTCCTAATCTTTCTGTTCAAGCGCCATCTAC”, for which the binding signal was 0.763 RPM ratio (pull-down/input). As for “GATGATTGTTCTCCCAGCTGATGAATTGTCAGGTTCGAGTAAACAAATTTTCCTAATCTTTCTGTTCAAGCGCCATCTAC”, the figure is 0.882 RPM ratio (pull-down/input).
